Assay results from PMC6919601, “Identification of Plasmodium dipeptidyl aminopeptidase allosteric inhibitors by high throughput screening” (PLoS ONE, 2019).
The whole screen tested about 110,000 compounds, of which about 230 (0.21%) showed an effect of 50% or more. The list shows a part of the results.

The molecules below were run against DPAP1 (Plasmodium falciparum, UniProt Q8IIJ9) (assay: primary screen, percent inhibition; read by cleavage of a fluorogenic dipeptide substrate; higher = more effect of the substance).
Design: species or system P. falciparum D10 trophozoite lysates; single well
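Note: 30 min substrate incubation versus DMSO and 10 µM JCP410 controls.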

Chain of DPAP1 (Q8IIJ9 whole entry, looked up): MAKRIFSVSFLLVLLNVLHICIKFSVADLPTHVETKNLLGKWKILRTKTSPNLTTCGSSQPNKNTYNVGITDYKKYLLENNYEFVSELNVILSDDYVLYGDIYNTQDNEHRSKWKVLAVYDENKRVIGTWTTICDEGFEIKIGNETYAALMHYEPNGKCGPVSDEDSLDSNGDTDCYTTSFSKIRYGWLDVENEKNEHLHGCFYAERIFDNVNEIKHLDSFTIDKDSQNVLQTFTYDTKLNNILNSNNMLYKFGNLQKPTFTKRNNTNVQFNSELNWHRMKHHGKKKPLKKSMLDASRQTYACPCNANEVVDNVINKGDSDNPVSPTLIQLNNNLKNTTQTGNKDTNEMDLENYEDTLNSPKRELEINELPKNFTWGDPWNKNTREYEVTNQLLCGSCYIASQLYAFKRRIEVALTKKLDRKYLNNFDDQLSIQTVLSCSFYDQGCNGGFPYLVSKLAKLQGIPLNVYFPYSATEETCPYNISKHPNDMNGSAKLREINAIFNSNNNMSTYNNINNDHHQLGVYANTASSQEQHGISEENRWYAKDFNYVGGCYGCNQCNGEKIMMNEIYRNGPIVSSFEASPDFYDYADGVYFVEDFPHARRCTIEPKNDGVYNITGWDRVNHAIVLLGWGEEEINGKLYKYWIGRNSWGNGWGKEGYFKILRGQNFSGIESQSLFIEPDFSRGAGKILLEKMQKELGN

First: Cc1cc(O)nc(N2CCCCC2)n1
Second: CCOc1ccc(Cc2nc(C)c(CC(=O)N3CCCCC3)c(O)n2)cc1
The “% Inhibition @ 10 uM” value of the first is lower: -0.239% for the first, 0.64% for the second.

First: CN(C)CCN(C)Cc1ccccc1Br
Second: COc1cccc(CN(C)C)c1O
The “% Inhibition @ 10 uM” value of the first is lower: -4.91% for the first, 1.37% for the second.

First: CC(NC(=O)CNC(=S)N(CCCN1CCOCC1)Cc1cccs1)c1ccccc1 (stereo not shown)
Second: O=C(CC(c1ccccc1)c1ccccc1)N1CCOCC1
The “% Inhibition @ 10 uM” value of the first is lower: 1.27% for the first, 3.25% for the second.

Going from `COc1ccc(C2C(C#N)=C(N)Oc3[nH]nc(-c4ccccc4)c32)cc1` (stereo not shown) to `Cc1ccccc1NC(=O)c1c(C)nc(S)c(C#N)c1-c1ccc(Cl)cc1`, the “% Inhibition @ 10 uM” value rises from -2.46% to 16.5%.

First: C=CCN1C(=O)NC(=O)/C(=C/c2cn(Cc3ccc(Cl)cc3)c3ccccc23)C1=O
Second: Cc1ccc(Cn2ccn(Cc3c(F)cccc3Cl)c(=O)c2=O)cc1
The “% Inhibition @ 10 uM” value of the first is higher: 7.93% for the first, -2.58% for the second.

Compared with `COc1ccc2c(c1)c1c(c(=O)n(CCc3ccccc3)c(=O)n1CC(=O)N1CCCC1)n2C`, `Cc1cc(C)c2c(=O)n(CC(=O)N3CCC(Cc4ccccc4)CC3)sc2n1` is higher in “% Inhibition @ 10 uM” value: -3.72% for the first, 19% for the second.

Compared with `O=C(NCC1CCCO1)c1ccc2c(Cl)c3c(nc2c1)CCCC3` (stereo not shown), `O=C(Cn1cnc2sc3c(c2c1=O)CCCC3)Nc1cc(Cl)ccc1Cl` is lower in “% Inhibition @ 10 uM” value: 2.47% for the first, -0.478% for the second.

Going from `COc1ccc(OC)c(-c2cc(C(=O)N3CCOCC3)no2)c1` to `COc1ccc(OC)c(-c2noc(N3CCN(C(=O)c4ccco4)CC3)n2)c1`, the “% Inhibition @ 10 uM” value rises from -1.84% to 1.25%.

Compared with `Oc1ncnc2c1sc1nc3ccccc3cc12`, `CN(C)c1nc(OCc2ccccc2)c2ncc(O)nc2n1` is higher in “% Inhibition @ 10 uM” value: -2.24% for the first, 4.03% for the second.

Going from `CCc1nn(CC(=O)NCCN2CCCCCC2)c(=O)c2cc3occc3n12` to `COCCNC(=O)Cn1ncn2c(cc3cc(F)ccc32)c1=O`, the “% Inhibition @ 10 uM” value rises from -4.01% to 4.84%.

Compared with `COCCNC(=O)Cn1cc2c(n1)-c1c(oc(C(=O)N3CCOCC3)c1C)CC2`, `Cc1cc(C(=O)NCCCN2CCOCC2)c2c(C)nn(-c3ccccc3)c2n1` is higher in “% Inhibition @ 10 uM” value: -5.93% for the first, 1.84% for the second.

Going from `CCC(Cc1ccccc1)NC(=O)CN1C(=O)CSc2ncccc21` (stereo not shown) to `O=C(NCCc1ccccc1)c1cnccn1`, the “% Inhibition @ 10 uM” value rises from -2.37% to 0.727%.

Going from `COc1ccc(OC)c(C2CC(=O)N3CN(Cc4ccco4)CSC3=C2C#N)c1` (stereo not shown) to `COc1ccc(NC(=O)CN2C(=O)S/C(=C\c3cc(OC)c(O)cc3Br)C2=O)cc1`, the “% Inhibition @ 10 uM” value falls from 6.87% to -1.16%.

Compared with `Cc1ccc(S(=O)(=O)Nc2cccc3ccc[n+](C)c23)cc1`, `O=C(O)c1cccc(S(=O)(=O)/N=C2\C=C(NS(=O)(=O)c3ccccc3)C(=O)c3ccccc32)c1` is higher in “% Inhibition @ 10 uM” value: 4.88% for the first, 10.6% for the second.

Compared with `Cc1ccc(NC(=O)C2CCCC2)cc1O`, `CN(CC(=O)NC1CCCCC1)S(=O)(=O)c1ccc(Cl)cc1` is higher in “% Inhibition @ 10 uM” value: -2.31% for the first, 1.83% for the second.

First: Cc1cccc(OCC(=O)N2CCN(C(=O)COc3cccc(C)c3)CC2)c1
Second: CCOC(=O)N1CCN(C(=O)CCN2C(=O)c3ccccc3C2=O)CC1
The “% Inhibition @ 10 uM” value of the first is higher: 1.27% for the first, -0.256% for the second.

Compared with `CC1(C)CC2=Nc3ncnn3C(c3ccccn3)C2=C(O)C1` (stereo not shown), `CC(C)CC1C(C#N)=C(SCC(=O)Nc2ccc(Br)cc2)N=C2CCCC(O)=C21` (stereo not shown) is higher in “% Inhibition @ 10 uM” value: -3.27% for the first, -1.64% for the second.

Going from `COc1ccc2[nH]c(C)c(CCNC(=S)NC(C)(C)C)c2c1` to `CC(C)(C)NC(=O)COc1ccc(CNCc2cccnc2)cc1`, the “% Inhibition @ 10 uM” value rises from -5.79% to 0.245%.

Going from `CCOC(=O)c1cn2nc(-c3ccc(OC)cc3)cc2nc1C1CCN(C(=O)OC(C)(C)C)CC1` to `CCOC(=O)c1cc2c(=O)n3ccccc3nc2n(C(C)C)/c1=N\C(=O)c1ccc2ccccc2c1`, the “% Inhibition @ 10 uM” value rises from -4.74% to 1.96%.

Compared with `Cc1ccc(CN2C(=O)c3ccccc3S2(=O)=O)c(C)c1`, `COc1ccccc1CNC(=O)[C@H](CCS(C)(=O)=O)N1Cc2ccccc2C1=O` is lower in “% Inhibition @ 10 uM” value: 2.09% for the first, 1.26% for the second.

Compared with `CCN(CC)C(=O)C1CCCN(Cc2cccc(Cl)c2)C1` (stereo not shown), `CC(O)CN(Cc1cccc(Cl)c1)CC(C)O` (stereo not shown) is lower in “% Inhibition @ 10 uM” value: -0.127% for the first, -7.34% for the second.

Going from `CS(=O)(=O)C1=NSC2=NC(=O)/C(=C\c3ccc(SCc4ccc(Cl)cc4)o3)C(=N)N21` to `O=C(Cn1ncn2cccc2c1=O)NCCc1ccc(Cl)cc1`, the “% Inhibition @ 10 uM” value falls from -0.0115% to -6.12%.

Compared with `CSC1=C(C#N)C(c2ccccc2C)C(C#N)C(=O)N1` (stereo not shown), `O=C1c2ccccc2C2c3[nH]c4ccccc4c3CCN12` (stereo not shown) is lower in “% Inhibition @ 10 uM” value: 3.06% for the first, -0.0372% for the second.

First: c1cncc(-c2nn3c(Cn4cnc5ccccc54)nnc3s2)c1
Second: O=C(O)CSc1c(O)nc2ccc(Cl)cc2c1-c1ccccc1
The “% Inhibition @ 10 uM” value of the first is higher: 7.5% for the first, -2.16% for the second.

First: Nc1ccccc1C(=O)N(Cc1ccccc1)Cc1ccccc1
Second: O=C(O)c1c(CNCc2ccccc2Cl)c2ccccc2n1Cc1ccccc1
The “% Inhibition @ 10 uM” value of the first is lower: 4.06% for the first, 5.09% for the second.

Compared with `COc1ccc(C(=O)Nc2ccc3nn(-c4ccc(OC)cc4)nc3c2)cc1`, `COc1ccc(N2C(=O)C(Cl)=C(Nc3cccc(C)c3)C2=O)cc1` is higher in “% Inhibition @ 10 uM” value: 0.643% for the first, 1.57% for the second.

Going from `NC(=O)c1c(NC(=O)CCCc2ccccc2)sc2c1CCCCC2` to `CCNC(=O)c1c(NC(=O)c2cc(=O)c3ccccc3o2)sc2c1CCCC2`, the “% Inhibition @ 10 uM” value falls from 5.83% to -1.47%.

Compared with `CC1(C)CC(c2ccccc2)(C(CO)CNCc2ccccc2)CCO1` (stereo not shown), `CN(/C=C/C(=O)c1ccccc1)S(=O)(=O)c1ccccc1` is lower in “% Inhibition @ 10 uM” value: 2.86% for the first, -1.91% for the second.

First: CCn1c2ccccc2c2cc(CN3CCc4ccccc4C3)ccc21
Second: Cc1ccc2c(c1)-c1onc(C(=O)NCCCN3CCc4ccccc4C3)c1CO2
The “% Inhibition @ 10 uM” value of the first is lower: 0.708% for the first, 1.69% for the second.

Going from `CCOCCCNC(=O)/C(C#N)=C/c1c(Oc2ccccc2F)nc2ccccn2c1=O` to `CCOCCCNC(=O)Cn1ncc2c3ccccc3n(C)c2c1=O`, the “% Inhibition @ 10 uM” value falls from -4% to -9.31%.

Going from `CCOC(=O)c1c(CC(C)C)csc1/N=C/C1C(=O)CC(C)(C)CC1=O` to `CCCCCCn1c(SC(C)C)nc2c1c(=O)[nH]c(=O)n2C`, the “% Inhibition @ 10 uM” value rises from -3.14% to 3.96%.

First: COc1ccc(OCC(=O)N2CCOCC2)cc1
Second: COC(=O)N1CCN(S(=O)(=O)c2ccc(C)cc2)CC1
The “% Inhibition @ 10 uM” value of the first is higher: -3.58% for the first, -3.6% for the second.

Compared with `COc1ccc(C2SCC(=O)N2CC23CC4CC(CC(C4)C2)C3)cc1` (stereo not shown), `COc1ccc(NC(=O)C2Cc3ccccc3CN2S(=O)(=O)c2cccs2)cc1` (stereo not shown) is lower in “% Inhibition @ 10 uM” value: 1.33% for the first, -2.15% for the second.

Compared with `O=C(O)c1ccc(NC(=O)c2ccccc2NC(=O)c2cccc(F)c2)cc1`, `COc1cccc(CNc2ccc(C(=O)O)cc2)c1OCc1ccccc1` is higher in “% Inhibition @ 10 uM” value: -7.96% for the first, 3.49% for the second.

First: CC(C)C(NC(=O)OCc1ccccc1)C(=O)OCC1OC(O)C(O)C(O)C1O (stereo not shown)
Second: Cc1oc2ccc(OCc3ccccc3)cc2c1C(=O)OC(C)C
The “% Inhibition @ 10 uM” value of the first is lower: -1.29% for the first, -0.357% for the second.

Going from `CN1CCN(C(=O)c2cc(Cl)cc(Cl)c2)CC1` to `CN1CCN(C(=O)c2ccc(Cl)c(S(=O)(=O)N3CCCCC3)c2)CC1`, the “% Inhibition @ 10 uM” value rises from -0.687% to -0.13%.

Compared with `OCCC1CCCCN1Cc1ccccc1F` (stereo not shown), `Cc1ccccc1CNCCC1=CCCCC1` is higher in “% Inhibition @ 10 uM” value: -4.58% for the first, 3.62% for the second.

Going from `CCOc1ccccc1-c1noc(CCCC(=O)N(C)C)n1` to `CCCN1CCN(C(=O)CCC(=O)N2Cc3ccccc3Oc3ncccc32)CC1`, the “% Inhibition @ 10 uM” value rises from 0.548% to 3.53%.

Compared with `O=C1C(=Cc2ccnc3ccccc23)C(=O)c2ccccc21`, `O=C(Nc1ccncc1)C(NS(=O)(=O)c1cccc2nsnc12)c1ccccc1` (stereo not shown) is higher in “% Inhibition @ 10 uM” value: 3.31% for the first, 3.63% for the second.

Compared with `Cc1cc(C)n(-c2cc(N)nc(Cl)n2)n1`, `CCCc1[nH]nc2c1C(c1ccc(OC)c(Cn3nc(C)c(Br)c3C)c1)C(C#N)=C(N)O2` (stereo not shown) is higher in “% Inhibition @ 10 uM” value: -3.49% for the first, 3.99% for the second.

Compared with `CCOc1ccc(C(=O)N(Cc2cccc(F)c2)C2CCS(=O)(=O)C2)cc1` (stereo not shown), `CCOc1ccc(C(=O)Nc2ccc(S(=O)(=O)N3CCC(C)CC3)cc2)cc1OCC` is lower in “% Inhibition @ 10 uM” value: 2.02% for the first, -10% for the second.

Compared with `Cn1c(CO)nc2ccccc21`, `Cc1cc2nc(O)c(O)nc2cc1S(=O)(=O)N(C)Cc1ccccc1` is higher in “% Inhibition @ 10 uM” value: -0.551% for the first, 10.8% for the second.

Going from `COc1ccc(OC)c(CNCc2c(C(=O)O)n(Cc3cccc(F)c3)c3cc(C)ccc23)c1` to `CCOc1cc(CNCc2c(C(=O)O)n(CC)c3cc(C)ccc23)cc(OCC)c1OCC`, the “% Inhibition @ 10 uM” value falls from -6.42% to -7.28%.

Compared with `Cc1nc(NC(=O)c2cccc(OCC(C)C)c2)ccc1Br`, `COc1cc(OC)cc(C(=O)Nc2cc(-c3nc4ncccc4o3)ccc2Cl)c1` is lower in “% Inhibition @ 10 uM” value: 3.8% for the first, 1.64% for the second.

Compared with `COc1ccc(/C=C/C2=NC(=C/c3cc(OC)c(OC)c(OC)c3)/C(=O)O2)cc1`, `COc1cc(C2=N/C(=C\c3ccccc3C(F)(F)F)C(=O)O2)cc(OC)c1OC` is lower in “% Inhibition @ 10 uM” value: 5.32% for the first, 1.64% for the second.

First: N#Cc1c(S)nc2c(c1C1CC=CCC1)CCC2 (stereo not shown)
Second: COc1cc(NC(=O)c2sc3nc4c(cc3c2N)CCCC4)cc(OC)c1
The “% Inhibition @ 10 uM” value of the first is higher: 43.3% for the first, 1.17% for the second.

First: O=C(CN1CC(=O)N2CCCC2C1=O)NC1CCCCCC1 (stereo not shown)
Second: N#CCNC(=O)[C@H](CC1CCCCC1)NC(=O)c1ccc(Br)cc1
The “% Inhibition @ 10 uM” value of the first is lower: -6.99% for the first, -1.83% for the second.

Going from `CC(C)C[C@H](Nc1ccc(C#N)cc1)C(=O)NCC#N` to `COc1ccc(-c2ccccc2)cc1NC(=O)C(C(F)(F)F)C(F)(F)F`, the “% Inhibition @ 10 uM” value falls from 17% to -2.44%.

Going from `O=C(CN1C(=O)S/C(=C\c2ccc(C(=O)O)cc2)C1=O)Nc1ccccc1` to `Cn1c(SCc2ccc(F)cc2)nc2ccc(C(=O)N3CCN(C(=O)c4ccco4)CC3)cc21`, the “% Inhibition @ 10 uM” value rises from -3.39% to -1.38%.

First: C=CCNC(=O)COc1ccc(Cl)cc1Cl
Second: CC1CCN(CC(O)c2ccc3cc[nH]c3c2)CC1 (stereo not shown)
The “% Inhibition @ 10 uM” value of the first is lower: -5.46% for the first, 2.34% for the second.
